# Laboratory results published in publication PMC4336329 (PLoS ONE, 2015).
# Hit rate of the full screen: of about 310,000 compounds, about 2,200 (0.71%) showed an effect of 50% or more. Effects have a minus sign here. Some of the results follow.
# Biological target: human ether-à-go-go-related gene (hERG) potassium channel (human, UniProt Q12809)
# Test: primary screen, population patch clamp on CHO cells stably expressing hERG
# Sequence of human ether-à-go-go-related gene (hERG) potassium channel (Q12809 whole entry, looked up): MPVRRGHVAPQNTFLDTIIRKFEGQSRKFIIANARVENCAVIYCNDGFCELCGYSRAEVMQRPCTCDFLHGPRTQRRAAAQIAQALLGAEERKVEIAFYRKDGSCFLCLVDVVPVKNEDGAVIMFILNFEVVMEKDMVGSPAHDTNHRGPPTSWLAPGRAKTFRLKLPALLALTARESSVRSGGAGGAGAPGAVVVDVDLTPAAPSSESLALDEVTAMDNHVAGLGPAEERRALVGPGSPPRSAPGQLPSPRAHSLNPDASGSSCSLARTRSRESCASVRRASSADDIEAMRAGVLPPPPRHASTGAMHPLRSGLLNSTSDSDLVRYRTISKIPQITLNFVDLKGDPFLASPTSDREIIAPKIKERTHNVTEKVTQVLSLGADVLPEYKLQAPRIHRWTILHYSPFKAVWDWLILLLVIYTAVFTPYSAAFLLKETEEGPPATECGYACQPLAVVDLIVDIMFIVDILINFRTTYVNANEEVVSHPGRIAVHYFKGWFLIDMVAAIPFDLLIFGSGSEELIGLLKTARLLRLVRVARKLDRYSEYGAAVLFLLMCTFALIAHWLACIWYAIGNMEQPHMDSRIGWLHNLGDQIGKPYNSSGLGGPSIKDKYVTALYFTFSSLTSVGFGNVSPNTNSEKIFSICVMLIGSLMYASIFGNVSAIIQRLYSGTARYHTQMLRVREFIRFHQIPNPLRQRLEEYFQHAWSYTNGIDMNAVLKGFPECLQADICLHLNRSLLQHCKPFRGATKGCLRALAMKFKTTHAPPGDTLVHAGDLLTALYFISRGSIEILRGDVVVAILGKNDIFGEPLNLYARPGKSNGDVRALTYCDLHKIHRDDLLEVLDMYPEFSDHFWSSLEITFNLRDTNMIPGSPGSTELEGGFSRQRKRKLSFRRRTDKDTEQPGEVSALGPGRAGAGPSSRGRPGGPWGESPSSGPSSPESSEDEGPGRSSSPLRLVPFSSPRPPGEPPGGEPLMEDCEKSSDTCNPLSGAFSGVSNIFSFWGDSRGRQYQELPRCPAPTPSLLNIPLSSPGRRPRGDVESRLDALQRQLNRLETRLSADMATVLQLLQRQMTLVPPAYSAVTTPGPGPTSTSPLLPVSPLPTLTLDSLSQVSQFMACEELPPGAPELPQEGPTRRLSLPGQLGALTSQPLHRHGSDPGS
row,SMILES,"hERG current change (%, negative = inhibition) at 1uM"
1,C=CCn1c(SCc2ccccc2F)nc2cc(C(=O)O)ccc2c1=O,23.8%
2,CCN(Cc1ccncc1)S(=O)(=O)c1ccc(C(C)=O)cc1,-5.85%
3,CC(C)Nc1nc(SC(C)C(=O)Nc2ccccc2)nc(N(C)C)n1 (stereo not shown),-7.07%
4,O=c1c2c3c(sc2ncn1/N=C/c1ccc(Br)o1)CCCC3,1.4%
5,CCO[C@@H]1OC(C(=O)NC2CC2)=C[C@H](C2CC2)[C@H]1CCCO,11.3%
6,Cc1csc(SCC(=O)N(C)CC(=O)Nc2ccc(F)cc2)n1,9.45%
7,N#Cc1ccc(CNc2cnccn2)cc1,-5.84%
8,O=C(c1ccccc1F)N1CCN(c2ccc([N+](=O)[O-])c(NCc3cccnc3)c2)CC1,7.94%
9,CCCc1nc2oc3c(OC)ncnc3c2c2c1COC(C)(C)C2,11.1%
10,COc1cc(/C=C/C(=O)OCC(=O)NCC2CCCO2)ccc1OCC#N (stereo not shown),9.6%
11,COc1cc2[nH]c(=O)n(Cc3ccc(C(=O)NCCCN4CCN(C)CC4)cc3)c(=O)c2cc1OC,0.861%
12,O=C(CSc1nc(-c2ccccc2)cs1)Nc1cccc([N+](=O)[O-])c1,11.1%
13,CC(O)c1nc2ccccc2n1Cc1ccccc1 (stereo not shown),8.76%
14,COc1cc(OC)c2c(c1)OC(c1ccc(OC)c(OC)c1)C(O)C2=O (stereo not shown),11.7%
15,COc1ccc(CN2C(=O)C(CC(C)C)Nc3ncnc(N4CCN(c5ccccn5)CC4)c32)cc1.O=C(O)C(F)(F)F (stereo not shown),-26.4%
16,CCOc1ccc(Br)cc1S(=O)(=O)Nc1cccnc1,11.7%
17,N#C/C(=C\C=C\c1ccccc1)c1nc(-c2ccc3c(c2)OCO3)cs1,1.07%
18,C=CCn1cc(C(=O)N2CCN(CC)CC2)c(=O)c2cc(S(=O)(=O)N(CC)CC)ccc21,8.84%
19,Cc1cc(=O)oc2cc(OS(C)(=O)=O)ccc12,-10.3%
20,CCOc1ccccc1C(=O)NCC(=O)OCc1csc(CC(=O)Nc2ccc(C)cc2)n1,2.59%
21,CC(c1cccs1)N(Cc1ccco1)C(=S)Nc1ccc(F)c(Cl)c1 (stereo not shown),10.4%
22,COc1cccc(NC(=O)c2ccc(-n3cccn3)nc2)c1,9.6%

row,SMILES,"hERG current change (%, negative = inhibition) at 1uM"
1,O=C(COC(=O)C1Cc2ccccc2CN1C(=O)c1ccccc1Cl)Nc1ccc(N2CCOCC2)cc1 (stereo not shown),10.8%
2,Cc1cc(C)c(C(=O)COC(=O)CNC(=O)c2ccccc2C)c(C)c1,11.6%
3,O=[N+]([O-])c1ccc2nc(/C=C/c3ccc(Cl)cc3)[nH]c2c1,7.42%
4,COc1ccc(S(=O)(=O)NC(C)C(=O)Nc2ccccc2)cc1Cl (stereo not shown),13.9%
5,O=C(c1cccc(C(F)(F)F)c1)N1CCC(O)(CS(=O)(=O)Cc2ccc(Cl)cc2)CC1,17.2%
6,CNC(=S)N/N=C/c1ccc(OCC(=O)Nc2c(C)cc(C)cc2C)c(OC)c1,7.08%
7,COc1ccc(/C=C(\NC(=O)c2ccc(OC)cc2)C(=O)Nc2cccc(C(=O)O)c2)cc1,14.5%
8,Cc1nc(SCC(=O)O)c(C#N)c2c1CCCC2,-5.46%
9,O=C(c1ccc(S(=O)(=O)Nc2ccccc2)cc1)N1CCCCCCC1,12.1%
10,COc1cccc(OCc2cc(C(=O)N(C)Cc3nc4ccccc4[nH]3)no2)c1,9.07%
11,CC(=O)c1ccc(NC(=O)CNCC(c2ccccc2)N(C)C)cc1.O=C(O)C(=O)O (stereo not shown),0.601%
12,O=C(NCCCO)c1cc2ccccc2[nH]1,5.51%
13,O=C1CCC(C(=O)N(Cc2cccs2)C2(C(=O)NC3CCCCC3)CCCCC2)N1 (stereo not shown),7.99%
14,CSc1cccc(NS(=O)(=O)c2ccc3c(c2)CCN3C(C)=O)c1,18.1%
15,CS(=O)(=O)N(CC(=O)NCc1ccco1)c1ccccc1Cl,-4.59%
16,CC(=O)C1=C(O)C(=O)N(c2ccc(Br)cn2)C1c1ccc(Br)cc1 (stereo not shown),13.6%
17,COc1ccc(C(=O)N2CCC(n3nccc3NC(=O)C3CC3)CC2)c(OC)c1OC,21.3%
18,CCOc1cccc2cc(C(=O)N3CC(C)OC(C)C3)c(=O)oc12 (stereo not shown),10.6%
19,Cc1cc(C)c(S(=O)(=O)Nc2ncn[nH]2)cc1C,30%
20,Fc1ccccc1CSc1nnc(Cn2cnc3ccccc32)n1-c1ccccc1,4.67%
21,Cc1cc(-n2cnc3c(=O)[nH]cnc32)ccc1N,12.6%
22,CC(C)(C)c1ccc(OCCOc2ccc(C(C)(C)C)cc2NC=O)c(NC=O)c1,10%

row,SMILES,"hERG current change (%, negative = inhibition) at 1uM"
1,Cc1ccc(C(=O)CSc2nccn2-c2ccccc2)cc1,6.45%
2,COCCNC(=O)c1ccc(-c2csc(C)n2)cc1,11.5%
3,CC1CCC2(CC1)NC(=O)N(CC(=O)c1ccc(CNC(=O)C(C)(C)C)s1)C2=O (stereo not shown),1.25%
4,COC(=O)N/N=C/c1cc(Cl)cc(Cl)c1OCc1ccccc1F,12.8%
5,FC(F)(F)c1cccc(N2Cc3ccccc3C2)c1,9.35%
6,CC1=C(CC(=O)O)c2cc(F)ccc2/C1=C/c1ccc(S(C)(=O)=O)cc1,17%
7,COc1cccc(Cn2c(=O)ccc3ccccc32)c1,5.85%
8,CC(C)N(C(=O)Cn1c(SCC(=O)NCc2ccc3c(c2)OCO3)nc2ccccc21)C(C)C,-10.6%
9,O=C(NCc1ccccc1)C1CC(=O)N(c2ccc(OCC(=O)N3CCOCC3)cc2)C1 (stereo not shown),5.03%
10,Cc1c(N2C(=O)CSC2c2ccco2)c(=O)n(-c2ccccc2)n1C (stereo not shown),0.905%
11,OCC1N=C(c2ccccn2)OC1c1ccccc1 (stereo not shown),17.2%
12,O=C(CSc1nc2ccccc2c(=O)n1CCCN1CCOCC1)Nc1ccc2c(c1)OCO2,-12.7%
13,COCCNC(=O)Cn1nc(C(F)(F)F)cc1C,6.49%
14,O=C(N/N=C/c1ccc(OCc2ccccc2)cc1)c1ccc(O)cc1,16.4%
15,CC(=O)C1=C(C)NC(SCC(N)=O)=C(C#N)C1CC(C)C (stereo not shown),20.3%
16,COc1ccc(NC(=O)c2ccc3c(c2)C(=O)N(Cc2cccnc2)C3=O)c(OC)c1,1.82%
17,CN(C)c1ccc(P(=O)(OC2CCCCC2)C(Nc2ccccc2)c2cccnc2)cc1 (stereo not shown),12.7%
18,COC(=O)Cc1ccc(Oc2ncc(C(F)(F)F)cc2Cl)cc1,15.9%
19,COc1cccc(/C=N/Nc2nc(C)cc(=O)[nH]2)c1OC,10.7%
20,CCCCCC(=O)Nc1ccccc1N1CCOCC1,3.19%
21,Cc1nc(Nc2nc3c(c(=O)[nH]2)CCC3)nc2ccccc12,-5.38%
22,O=C(CN1C(=O)NC(c2ccccc2)(c2ccccc2)C1=O)NCCNCCO,22.7%

row,SMILES,"hERG current change (%, negative = inhibition) at 1uM"
1,CC(C)(CO)CNC(=O)CCc1nnc(Cc2ccc(-c3ccccc3)cc2)o1,4.36%
2,N#Cc1cc(-c2ccccc2)c[nH]c1=O,16.4%
3,O=[N+]([O-])c1ccc(/C=N/NC(=S)Nc2ccccc2F)o1,3.67%
4,O=C(O/N=C1\CCCc2ccccc21)c1cccc(Cl)c1,5.58%
5,Cc1noc(C)c1COC(=O)CNC(=O)c1cccc(F)c1,7.55%
6,CS(=O)(=O)N(CC(=O)N1CCOCC1)c1cc(Cl)ccc1Cl,15%
7,COc1cccc(NC(=O)C2CCN(S(C)(=O)=O)CC2)c1,5.92%
8,CCn1ccnc1C(O)c1ccc(N(C)C)cc1 (stereo not shown),14.7%
9,COc1ccc(-c2nc3cnccn3c2Nc2ccc(C)cc2)cc1,15.9%
10,COc1cc2c(cc1OC)C(=O)Cc1ccc3c(c1CN(C)CC2)OCO3,-39.4%
11,CCN(Cc1cnn(C)c1)C(=O)c1cc(COc2ccc(F)cc2F)on1,2.01%
12,COc1ccc(C(=O)N/C(=C\c2cn(S(=O)(=O)N(C)C)c3ccccc23)C(=O)N2CCN(C)CC2)cc1,-15.5%
13,COc1ccc(N2CCN(c3ncccn3)CC2)cc1,8.11%
14,O=C(CC(Nc1ccc(F)cc1)C(=O)OCC(=O)c1cccs1)c1ccccc1 (stereo not shown),10.6%
15,CN(c1ccccc1)S(=O)(=O)c1ccc(C(=O)OCC(=O)NCc2cccs2)cc1,8.57%
16,CC(=O)c1c(C)[nH]c(C(=O)Nc2nc(-c3ccccc3)c(C)s2)c1C,-2.64%
17,CS(=O)(=O)c1ccc(C(=O)OCC(=O)NC(=O)Cc2ccccc2)cc1,1.47%
18,COc1ccc(C2=NC(C)(C)Cc3cc(OC)c(OC)cc32)cc1OC.Cl,3.53%
19,FC(F)(F)c1cccnc1Oc1ccc(C2=NCCS2)cc1,9.75%
20,COc1ccc(CNC(=O)C(C)n2nc(C)c3c(C)n(-c4ccccc4)nc3c2=O)c(OC)c1 (stereo not shown),12.4%
21,O=C(NCCN1CCOCC1)c1ccc(Cl)cc1O,9.62%
22,O=C(CSc1nc2ccccc2n1CC(=O)NCc1ccccc1)NCc1ccco1,3.15%
